Out of some 220,000 compounds screened, about 5,700 (2.6%) were called active. Inconclusive results, whose numbers are uncertain, are shown with a selection of clear calls. Calls come from the whole dose curve; as a rule, active = well fitted inhibition curve with a large enough effect; inconclusive = small, poorly fitted or top-dose-only effect; inactive = no such curve, though single readings can be large or run the other way. Potencies beside an inconclusive call are fits to weak or partial responses and may not hold up.
biological target: Lysine-specific demethylase 5B (Homo sapiens) (UniProt Q9UGL1); experiment: Primary screen for KDM5B Histone Demethylases FDH-coupled qHTS; settings: FDH-coupled NADH fluorescence (FDH is formaldehyde dehydrogenase); activity change, negative = inhibition: at 57.7 µM (top of the series) unless noted; note: nearly all actives have a fitted effect of over 70% in size; for activity change, negative = inhibition: 0% is about no effect
Outline: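 Coupled FDH/NAD⁺ fluorescence readout. KDM5BΔAP 200 nM final; compound titration, 10 min RT preincubation; substrate mix 12.5 µM H3K4me3, 25 µM 2-OG, 50 µM Fe(II), 100 µM ascorbate, 0.25 mM NAD⁺, 0.25 U/mL FDH; ΔRFU over 30 min.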
Potency is the fitted concentration of half-maximal effect; tags give direction and shape of the fitted curve.

UniProt Q9UGL1, sequence (Q9UGL1 whole entry, looked up): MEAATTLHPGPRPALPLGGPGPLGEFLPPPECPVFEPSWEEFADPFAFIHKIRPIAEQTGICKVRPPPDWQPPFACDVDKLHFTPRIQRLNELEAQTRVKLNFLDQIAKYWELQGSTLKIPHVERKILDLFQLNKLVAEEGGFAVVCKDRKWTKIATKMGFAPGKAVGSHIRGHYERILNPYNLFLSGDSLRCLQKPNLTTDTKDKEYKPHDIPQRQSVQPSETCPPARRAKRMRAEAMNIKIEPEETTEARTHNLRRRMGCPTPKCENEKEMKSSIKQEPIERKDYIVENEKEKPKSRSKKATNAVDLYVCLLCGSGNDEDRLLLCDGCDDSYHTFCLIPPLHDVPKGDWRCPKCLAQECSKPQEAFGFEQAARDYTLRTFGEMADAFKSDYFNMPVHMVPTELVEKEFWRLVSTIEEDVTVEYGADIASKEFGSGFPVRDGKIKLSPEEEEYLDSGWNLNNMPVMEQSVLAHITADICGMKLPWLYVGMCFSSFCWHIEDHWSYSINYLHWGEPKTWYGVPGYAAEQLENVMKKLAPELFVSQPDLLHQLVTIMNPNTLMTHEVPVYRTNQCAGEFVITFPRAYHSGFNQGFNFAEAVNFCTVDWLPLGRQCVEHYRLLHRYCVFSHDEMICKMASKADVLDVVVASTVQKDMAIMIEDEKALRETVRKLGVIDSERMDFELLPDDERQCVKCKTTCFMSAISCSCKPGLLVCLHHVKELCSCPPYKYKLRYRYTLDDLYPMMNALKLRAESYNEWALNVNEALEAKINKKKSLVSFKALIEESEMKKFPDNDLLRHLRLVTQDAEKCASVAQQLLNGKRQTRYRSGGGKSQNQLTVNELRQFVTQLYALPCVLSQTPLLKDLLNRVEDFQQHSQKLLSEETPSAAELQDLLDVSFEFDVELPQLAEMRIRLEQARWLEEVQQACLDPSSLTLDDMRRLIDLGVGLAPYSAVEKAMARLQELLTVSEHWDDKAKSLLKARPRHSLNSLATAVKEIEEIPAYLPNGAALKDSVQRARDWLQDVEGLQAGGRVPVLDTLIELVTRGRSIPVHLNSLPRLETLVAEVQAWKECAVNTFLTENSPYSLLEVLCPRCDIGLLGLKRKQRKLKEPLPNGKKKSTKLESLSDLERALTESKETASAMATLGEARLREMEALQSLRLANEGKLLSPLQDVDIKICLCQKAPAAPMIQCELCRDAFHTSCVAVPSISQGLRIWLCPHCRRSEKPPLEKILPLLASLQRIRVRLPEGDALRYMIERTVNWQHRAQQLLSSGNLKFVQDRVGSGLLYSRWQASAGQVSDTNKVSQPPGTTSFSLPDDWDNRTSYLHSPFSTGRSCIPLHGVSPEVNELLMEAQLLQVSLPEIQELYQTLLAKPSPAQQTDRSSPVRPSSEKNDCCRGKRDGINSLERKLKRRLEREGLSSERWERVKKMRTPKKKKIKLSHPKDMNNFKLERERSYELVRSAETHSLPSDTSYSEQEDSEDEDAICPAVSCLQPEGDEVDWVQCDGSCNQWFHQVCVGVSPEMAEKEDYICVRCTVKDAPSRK

Row | SMILES | Potency | activity change, negative = inhibition
1 | CCc1ccc(-c2cc(C(=O)O)c3ccccc3n2)cc1 | inconclusive: 25.1 µM [inhibitor, single point] | 
2 | CCCCc1ccc(CN2C[C@@H]3CC[C@H](C2)N(Cc2ccccn2)C3=O)s1 | inconclusive: 25.1 µM [inhibitor, partial curve, poor fit] | 
3 | Brc1cccc(Oc2nc(-c3ccncc3)nc3ccccc23)c1 |  | inactive: 1.82%
4 | CCOc1ccccc1CN1CCC2(CCN(CCc3ccc(OC)cc3)CC2)Oc2ccccc21 | inconclusive: 20 µM [inhibitor, single point] | 
5 | CC(Oc1cc(Cl)ccc1Cl)C(=O)Nc1ccnn1C(C)C (stereo not given) |  | inactive: 8.6%
6 | COc1ccc(-c2nc(S(=O)(=O)c3ccc(Cl)cc3)c(N3CCCCCC3)o2)cc1 | inconclusive: 25.1 µM [inhibitor, partial curve, poor fit] | 
7 | Cc1ccc(NC(=O)CN2C(=O)CSc3ccc(S(=O)(=O)N(C)C)cc32)cc1C | inconclusive: 1.12 µM [inhibitor, partial curve, poor fit] | 
8 | CCn1cc(S(=O)(=O)N2CCN(c3ccccc3C)CC2)cn1 |  | inactive: 0.844%
9 | CCOC(=O)C1C(=O)C=C(Nc2ccc(C(F)(F)F)cc2)CC1c1ccccc1 (stereo not given) | inconclusive: 35.5 µM [inhibitor, partial curve, poor fit] | 
10 | O=C1NC2(CCN(CC3CCCCC3)CC2)COc2ccccc21 | inconclusive: 31.6 µM [inhibitor, single point] | 
11 | Cc1ccc(C)c(C(=O)Nc2ccc3[nH]c(C)cc3c2)c1 |  | inactive: 5.84%
12 | CCCc1cc(=O)oc2cc(OCC(=O)Nc3cc(C)on3)ccc12 | inconclusive: 28.2 µM [inhibitor, partial curve, poor fit] | 
13 | O=C(N1CCCC1)N1CCn2c(nnc2C2CCCN2)C1 (stereo not given) | inconclusive: 79.4 µM [inhibitor, partial curve] | 
14 | O=C(CC[C@@H]1CNC(=O)[C@@H]2C[C@H](NCc3ccc(OC(F)(F)F)cc3)CN12)Nc1ccccc1 | inconclusive: 20 µM [inhibitor, single point] | 
15 | c1ccc(CN2Cc3[nH]cnc3C[C@H]2c2nc(-c3ccccc3)no2)cc1 | inconclusive: 28.2 µM [inhibitor, partial curve, poor fit] | 
16 | Cc1cccc(-c2nc(C#N)c(N3CCN(c4ccccc4)CC3)o2)c1 | inconclusive: 1.78 µM [inhibitor, full curve, poor fit] | 
17 | COC(=O)CC(NC(=O)c1ccc(CS(C)(=O)=O)cc1)c1ccc(C)cc1 (stereo not given) |  | inactive: 6%
18 | CC(C)(Oc1ccc(Cl)cc1)C(=O)Nc1cccc(-c2cn3cccnc3n2)c1 | inconclusive: 2.51 µM [inhibitor, full curve, poor fit] | 
19 | CCN(CC)CCNC(=O)c1ccc2c(c1)n(Cc1cccc(F)c1)c(=O)c1ccnn12 | active: 28.2 µM | 
20 | Nc1nc2nc(-c3ccc(Cl)cc3)cc(C(F)(F)F)n2n1 | inconclusive: 7.08 µM [inhibitor, partial curve, poor fit] | 
21 | O=C(c1cc(F)ccc1F)N1CCC(n2cc(-c3nc(C4CC4)no3)nn2)C1 (stereo not given) |  | inactive: -1.5%
22 | CC(=O)N1c2ccccc2C(=O)C1N1CCN(c2cccc(C)c2C)CC1 (stereo not given) | inconclusive: 28.2 µM [inhibitor, partial curve, poor fit] | 

Row | SMILES | Potency | activity change, negative = inhibition
23 | CCC(C)NC(=S)N(C)N (stereo not given) |  | inactive: 5.66%
24 | Cc1cc(-c2ccc3c(c2)OCCCO3)nc2ccccc12 | inconclusive: 28.2 µM [inhibitor, single point] | 
25 | COCCn1c(C)cnc1CC1CCCN(Cc2ccc(F)cc2F)C1 (stereo not given) |  | inactive: -13.6%
26 | Cc1ccc(S(=O)(=O)N2CCC(OC3CCN(Cc4ccccc4)CC3)CC2)c(C)c1 |  | inactive: 8.63%
27 | c1cn(-c2ccc(-c3nccn3C[C@@H]3CCCO3)cc2)cn1 | inconclusive: 14.1 µM [inhibitor, partial curve, poor fit] | 
28 | COc1ccc(-c2nn(Cc3nc(-c4ccccc4C)no3)c(=O)c3ccccc23)cc1 | inconclusive: 10 µM [inhibitor, partial curve, poor fit] | 
29 | CC(C)Nc1ccc2nnc(-c3ccc(F)cn3)n2n1 | inconclusive: 35.5 µM [inhibitor, partial curve, poor fit] | 
30 | O=C(Nc1ccc(I)cc1)C1CCCCC1 |  | inactive: 22.6%
31 | CC(=O)Nc1c(C)noc1/C=C\c1ccc(C)c(S(=O)(=O)Nc2c(C)cccc2C)c1 | inconclusive: 25.1 µM [inhibitor, partial curve, poor fit] | 
32 | COc1ccc(-c2cn3c(n2)CO[C@@H](CNS(=O)(=O)c2ccc(C)cc2)C3)cc1 |  | inactive: -33.5% [at 86.2 µM]
33 | c1cncc(CSc2nnc3ccc(-c4cccs4)nn23)c1 | inconclusive: 39.8 µM [inhibitor, single point] | 
34 | COC(=O)c1ccc([C@@H]2Nc3c(cccc3C(F)(F)F)[C@@H]3C=CC[C@@H]32)cc1 | inconclusive: 35.5 µM [inhibitor, single point] | 
35 | CCC1=C(C(=O)OC)C(c2ccccc2OC)N2C(CC(=O)NCC3CC3)=CSC2=N1 (stereo not given) | inconclusive: 15.8 µM [inhibitor, partial curve, poor fit] | 
36 | S=C1NC2(CCCCCCCCCCC2)NN1c1ccc(Cl)cc1 | inconclusive: 10 µM [inhibitor, partial curve, poor fit] | 
37 | CCN1c2cc(C(=O)Nc3cccc(F)c3)ccc2C(=O)N2CCCCCC21 (stereo not given) | inconclusive: 25.1 µM [inhibitor, partial curve, poor fit] | 
38 | O=C(Cc1c(F)cccc1Cl)N1CCN(c2cc(-c3cccs3)[nH]n2)CC1 | inconclusive: 28.2 µM [inhibitor, partial curve] | 
39 | CCNC(=O)[C@@H]1C[C@H](NC(=O)c2cc(C)on2)CN1Cc1nccs1 | inconclusive: 11.2 µM [inhibitor, partial curve] | 
40 | Nc1cc(Cl)ccc1C(=O)OCC(=O)NCc1cccs1 | inconclusive: 28.2 µM [inhibitor, partial curve, poor fit] | 
41 | CCCN1CCC2(CCN([S+](=O)([O-])c3cccc(C(F)(F)F)c3)CC2)Oc2ccccc21 | inconclusive: 31.6 µM [inhibitor, single point] | 
42 | CCc1nncn1C1CCN(S(=O)(=O)c2ccc(C)c(Cl)c2)CC1 |  | inactive: -4.68%
43 | CCOC(=O)CNC(=O)c1ccc2c(c1)N(S(C)(=O)=O)CC2 | inconclusive: 25.1 µM [inhibitor, single point] | 
44 | COc1ccc(NC(C)=O)cc1NC(=O)C(=O)c1c[nH]c2ccccc12 |  | inactive: 6.13%

Row | SMILES | Potency | activity change, negative = inhibition
45 | Fc1ccc(-c2nc3ccccc3o2)cc1 | inconclusive: 39.8 µM [inhibitor, single point] | 
46 | CC(C)C[C@@H]1N[C@H](C(=O)O)Cc2cn(Cc3nccn3C)c3cccc1c23 | active: 31.6 µM | 
47 | CC(=O)Nc1ccc(S(=O)(=O)N2CC[C@H](c3nc4ccccc4o3)C2)cc1 | inconclusive: 44.7 µM [inhibitor, partial curve, poor fit] | 
48 | CCCN(CCC)CCCNC(=O)c1cc2c(-c3ccc(Cl)cc3)nn(C)c2s1 | inconclusive: 28.2 µM [inhibitor, partial curve, poor fit] | 
49 | O=C(NCc1nnc2c(-c3nc(C4CC4)no3)cccn12)c1ccc(F)c(F)c1 | inconclusive: 15.8 µM [inhibitor, partial curve, poor fit] | 
50 | ON(/C=C1\C=Nc2ccccc21)c1ccc(Br)cc1 | inconclusive: 17.8 µM [inhibitor, partial curve, poor fit] | 
51 | O=C(Nc1ccc(Cl)cc1)c1ccc(-c2ccccn2)s1 | inconclusive: 7.94 µM [inhibitor, full curve, poor fit] | 
52 | N#Cc1ccc(COC(=O)c2ccc3ccccc3n2)cc1 |  | inactive: -21.5%
53 | Cn1cc(-c2nc(N3CCOCC3)cc3c2CN(c2ccccc2)C3=O)cn1 | active: 20 µM | 
54 | COc1ccccc1-c1c(C(F)(F)F)oc2c(CN3CCCCC3C)c(O)ccc2c1=O (stereo not given) |  | inconclusive: -31.5% [inhibitor]
55 | N#Cc1ccc(Cl)cc1NC(=O)C12CC3CC(CC(Cl)(C3)C1)C2 |  | inactive: 22.7%
56 | O=C(Nc1ccc2oc(-c3cccc4c(Br)cccc34)nc2c1)c1ccc(Br)cc1 | inconclusive: 1.78 µM [inhibitor, full curve, poor fit] | 
57 | COCCNC(=O)c1ccc2c(c1)NC(=O)C(CS(=O)(=O)Cc1ccc(F)cc1Cl)N2 (stereo not given) | inconclusive: 10 µM [inhibitor, partial curve, poor fit] | 
58 | COC(=O)c1cnc(/C=C/c2cccc(OC(C)C(=O)O)c2)s1 (stereo not given) | inconclusive: 35.5 µM [inhibitor, partial curve, poor fit] | 
59 | COCCn1c(N2CCCC(C)C2)nc2c1c(=O)[nH]c(=O)n2C (stereo not given) | inconclusive: 35.5 µM [inhibitor, single point] | 
60 | COc1ccccc1Nc1ncc2c(n1)CCN(CC(C)C)C2 |  | inconclusive: -31.4% [inhibitor]
61 | CCS(=O)(=O)N1CCCc2cc(C(=O)Nc3cc(C)ccc3C)ccc21 |  | inactive: 15.1%
62 | COc1ccc2c(C)c(CC(=O)NCCN3CCOCC3)c(=O)oc2c1OC | inconclusive: 31.6 µM [inhibitor, partial curve, poor fit] | 
63 | Cc1ccccc1CNC(=O)CCCn1ncn2c(cc3occc32)c1=O |  | inactive: 6.42%
64 | O=C1C2=C(Nc3ccccc3SC2c2ccc(C(F)(F)F)cc2)c2ccccc21 (stereo not given) | inconclusive: 25.1 µM [inhibitor, partial curve, poor fit] | 
65 | CC1(CNc2ccccc2)COc2ccc(C(=O)NC3CCC(O)CC3)cc2N1 (stereo not given) | inconclusive: 39.8 µM [inhibitor, partial curve] | 

From PubChem BioAssay AID1347165 (National Center for Advancing Translational Sciences (NCATS), 2019)
